Laboratory results: paper PMC4336329 (PLoS ONE, 2015)
The campaign covered roughly 310,000 compounds. About 14,000 (4.5%) showed an effect of 50% or more. Effects have a minus sign here. The list shows a part of the results.

Each molecule was assayed against human ether-à-go-go-related gene (hERG) potassium channel (human, UniProt Q12809) (assay: primary screen, population patch clamp on CHO cells stably expressing hERG).
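Note: peak tail current of the secondary pulse compared with the same well before compound.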

Sequence of human ether-à-go-go-related gene (hERG) potassium channel (Q12809 whole entry, looked up): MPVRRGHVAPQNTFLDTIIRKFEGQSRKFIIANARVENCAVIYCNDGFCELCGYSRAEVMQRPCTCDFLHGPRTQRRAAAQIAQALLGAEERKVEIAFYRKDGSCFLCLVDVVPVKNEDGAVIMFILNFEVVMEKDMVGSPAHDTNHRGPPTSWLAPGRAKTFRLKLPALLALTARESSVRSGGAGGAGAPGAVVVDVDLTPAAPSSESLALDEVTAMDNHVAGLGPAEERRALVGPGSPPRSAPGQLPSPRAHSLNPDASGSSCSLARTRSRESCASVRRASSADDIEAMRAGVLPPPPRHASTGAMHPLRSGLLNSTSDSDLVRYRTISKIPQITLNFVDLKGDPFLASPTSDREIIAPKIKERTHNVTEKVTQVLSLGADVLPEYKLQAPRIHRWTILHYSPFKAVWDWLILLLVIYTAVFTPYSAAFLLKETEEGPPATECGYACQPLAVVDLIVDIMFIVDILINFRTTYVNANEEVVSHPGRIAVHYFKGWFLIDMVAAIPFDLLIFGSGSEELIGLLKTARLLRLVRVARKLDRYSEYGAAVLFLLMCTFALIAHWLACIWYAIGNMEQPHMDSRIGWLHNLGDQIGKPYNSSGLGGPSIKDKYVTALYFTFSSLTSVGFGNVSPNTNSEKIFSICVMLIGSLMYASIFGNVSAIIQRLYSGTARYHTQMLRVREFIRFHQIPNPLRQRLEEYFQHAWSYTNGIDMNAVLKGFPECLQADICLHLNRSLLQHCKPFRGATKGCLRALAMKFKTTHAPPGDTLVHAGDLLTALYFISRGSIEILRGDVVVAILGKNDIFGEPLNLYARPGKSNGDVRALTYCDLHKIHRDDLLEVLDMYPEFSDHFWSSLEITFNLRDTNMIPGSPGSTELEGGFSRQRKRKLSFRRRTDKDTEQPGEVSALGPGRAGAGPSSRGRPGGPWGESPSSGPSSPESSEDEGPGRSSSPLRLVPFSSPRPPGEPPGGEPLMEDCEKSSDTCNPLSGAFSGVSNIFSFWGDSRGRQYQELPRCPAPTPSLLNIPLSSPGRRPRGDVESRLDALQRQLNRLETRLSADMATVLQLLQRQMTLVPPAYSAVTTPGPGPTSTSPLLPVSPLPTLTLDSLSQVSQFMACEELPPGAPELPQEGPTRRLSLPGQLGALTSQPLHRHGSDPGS

| Compound | hERG current change (%, negative = inhibition) at 10uM [%] |
| --- | --- |
| CC(C)CCn1c(=O)c2sccc2n2c(CCCC(=O)N3CCN(c4ccccn4)CC3)nnc12 | -65 |
| COC(=O)[C@H](CC(C)C)NC(=O)NC1CCCCC1C (stereo partly shown) | -3.37 |
| Cc1ccccc1C(=O)NNc1ccc(-c2csnn2)cc1 | -21.8 |
| Br.CCCn1c(=N)n(CC(=O)c2ccc([N+](=O)[O-])cc2)c2ccccc21 | -78.5 |
| COc1ccc(C(=O)NCc2cn3ccsc3n2)cc1OC | 6.91 |
| O=C(Nc1cccc(C(F)(F)F)c1)c1sc(Cl)nc1C(F)(F)F | -2.01 |
| CC(C)C(CCN1C(=O)c2ccccc2C1=O)c1ccco1 (stereo not shown) | -18.1 |
| CS(=O)(=O)N(CC(=O)NCCSCc1ccccc1)c1ccccc1Cl | -13.4 |
| O=C(COc1ccc(/C=N/NS(=O)(=O)c2ccccc2)cc1)NCc1ccccc1 | 11.7 |
| CCc1nnc(NC(=O)c2ccc(OCc3c(C)noc3C)c(OC)c2)s1 | 14.8 |
| CCc1ccc(C2=NN(CCC(=O)NCc3cccs3)C(=O)CC2)cc1 | -30.9 |
| O=C(CCn1cccn1)Nc1ccc2c(c1)OCO2 | 20.9 |
| CN(C)Cc1ccccc1OC(=O)N(C)C.O=C(O)/C=C/C(=O)O | -6.2 |
| CC(C)Oc1ccc(C(=O)NC(=S)N2CCOCC2)cc1 | 6.88 |
| CC(NC(=S)Nc1ccccc1OC(F)F)C(C)(C)C (stereo not shown) | 3.18 |
| O=C(N1CCN(Cc2ccc3c(c2)OCO3)CC1)C12CC3CC(CC(C3)C1)C2 | -25.1 |
| COc1ccc(NC(=O)CSc2nnc(-c3ccco3)n2C)cc1 | -11.2 |
| Cc1sc(NC(=O)CN2CCCC2)nc1-c1ccc2c(c1)CCN2C(=O)c1ccc(F)cc1 | 17.9 |
| CCN(CC(=O)Nc1ccc(OC)cc1)CC(=O)Nc1ccc2c(c1)OCO2 | -34.9 |
| O=C(NCc1ccc(F)cc1)C1CCN(S(=O)(=O)N2CCOCC2)CC1 | -3.23 |

| Compound | hERG current change (%, negative = inhibition) at 10uM [%] |
| --- | --- |
| O=C(COc1ccc(N2C(=O)c3ccccc3C2=O)cc1)c1ccccc1 | 19.4 |
| O=P(O)(O)C(O)C(F)(F)C(F)(F)C(F)(F)C(F)F (stereo not shown) | 19.8 |
| CC(C)(ONC(=O)Nc1ccccc1Cl)C(=O)O | 5.17 |
| O=C(CCc1ccccc1)Nc1ncc([N+](=O)[O-])s1 | 2.96 |
| COC(=O)c1ccc(Oc2ccc3nncn3n2)cc1 | -9.07 |
| CC(=O)c1cccc(CN2CCN(Cc3ccc(C)cc3)C(CCO)C2)c1 (stereo not shown) | -69 |
| COCCN1Cc2cccc(C(=O)Nc3ccc(C)c(C)c3)c2C1=O | -45.3 |
| O=C(COC(=O)/C=C/c1ccco1)NCc1ccc2c(c1)OCO2 | 18.3 |
| Br.CCn1c(=N)n(Cc2ccccc2F)c2ccccc21 | -37.5 |
| Cc1ccsc1C1C(C(=O)O)c2ccccc2C(=O)N1C (stereo not shown) | 18.5 |
| Cc1noc(C)c1C(=O)N1CCN(S(=O)(=O)c2ccc(F)cc2)CC1 | 11.9 |
| COc1cccc(C(=O)Nc2cc(OC)ccc2NC(=O)c2ccco2)c1 | -1.38 |
| CCOC(=O)c1cccc(NC(=O)C2CCCN(S(=O)(=O)c3c(C)n[nH]c3C)C2)c1 (stereo not shown) | 13.3 |
| Cc1ccccc1OCC(O)Cn1c(NCc2ccccc2)nc2c1c(=O)[nH]c(=O)n2C (stereo not shown) | -3.37 |
| Cl.OCCN1CCN(CC(O)COCc2ccc3c(c2)OCO3)CC1 (stereo not shown) | -1.01 |
| Cn1cccc1CC(=O)N/N=C/c1ccco1 | 14.5 |
| CC(C)CC(=O)Nc1nnc(CSCc2ccc(F)cc2)s1 | -2.3 |
| CC(=O)Nc1nonc1-c1nc2ccccc2n1C | 10.7 |
| CCOC(=O)c1c(N=CN(C)C)c2cc([N+](=O)[O-])cnc2n1C | -6.08 |
| COc1ccc(NS(=O)(=O)c2ccc(C)c(C(=O)NNC(=O)c3ccccc3O)c2)cc1 | -2.24 |

| Compound | hERG current change (%, negative = inhibition) at 10uM [%] |
| --- | --- |
| c1ccc(NC(c2ccccc2)c2ccncc2)cc1 (stereo not shown) | -2.12 |
| CCOC(=O)C1=C(COC(=O)/C=C/c2ccc(SC)cc2)NC(=O)NC1C (stereo not shown) | 8.74 |
| O=C(CN1CCN(c2ccc([N+](=O)[O-])cc2Cl)CC1)N1CCOCC1 | -45.2 |
| CC(OC(=O)c1ccccc1NCCO)C(=O)Nc1ccnn1C(C)C (stereo not shown) | 6.22 |
| O=C(COc1ccc(C(=S)N2CCC(Cc3ccccc3)CC2)cc1)N1CCOCC1 | 2.33 |
| O=C(c1cccs1)c1coc2ccc(O)cc12 | 4.53 |
| CCOC(=O)N1CCN(C(=O)CN(C)S(=O)(=O)c2ccc(OC)c(OC)c2)CC1 | 2.77 |
| COCCn1c(C)cc(C2=NNC(=NC(C)(C)C)SC2)c1C | 11.6 |
| Cc1cc(NC(=O)COC(=O)c2ccc(S(=O)(=O)N3CCCc4ccccc43)cc2)no1 | 3.93 |
| CCCCn1c(=O)[nH]c(=O)c2c1nc(-c1cc(Br)c(OCC)c(OC)c1)n2C | 1.82 |
| COc1ccc(-c2cn3c(C)c(C(=O)NC(C)C)sc3n2)cc1 | 6.65 |
| COc1cc2sc(NC(=O)c3ccco3)nc2cc1Cl | 11.6 |
| CCC(=O)N(Cc1cc2c(C)cc(C)cc2[nH]c1=O)C1CCCCC1 | -29.1 |
| Clc1ccc(Nc2nc(-c3ccncc3)cs2)cc1 | -0.224 |
| CCn1c(=O)n(CC(=O)NC2CCCC(C)C2C)c(=O)c2ccccc21 (stereo not shown) | -4.78 |
| O=C(COC(=O)CNC(=O)C1CCCCC1)Nc1ccccc1Cl | 23.3 |
| CCOC(=O)Cn1c(=NC(=O)C(C)C)sc2c(C)cc(C)cc21 | -6.57 |
| Cc1ccc(-c2nnc(NC3CCCC3)s2)cc1 | -22.6 |
